# Source: PubChem BioAssay AID1347165 (National Center for Advancing Translational Sciences (NCATS), 2019)
# Hit rate of the full screen: of about 220,000 compounds, about 5,700 (2.6%) were called active. The inconclusive results got no clear call from the source; some entries with a clear call stand among them for comparison. Calls follow the shape of the dose curve; as a rule, active = well fitted inhibition curve with a large enough effect; inconclusive = small, poorly fitted or top-dose-only effect; inactive = no such curve, though single readings can be large or run the other way. Potencies beside an inconclusive call are fits to weak or partial responses and may not hold up.
# Target: Lysine-specific demethylase 5B (Homo sapiens) (UniProt Q9UGL1)
# Experiment: Primary screen for KDM5B Histone Demethylases FDH-coupled qHTS; also: nearly all actives have a fitted effect of over 70% in size; as to activity change, negative = inhibition: 0% is about no effect
# Details: FDH-coupled NADH fluorescence (FDH is formaldehyde dehydrogenase); activity change, negative = inhibition: at 57.7 µM (top of the series) unless noted
# Method in brief: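 Measured: NADH fluorescence change, 30 min, RT. System: KDM5BΔAP 200 nM final, H3K4me3 peptide, α-KG, Fe(II), ascorbate, NAD⁺ plus FDH, pH 7.5 HEPES. Compounds: titrated, 10 min pre-incubation with enzyme.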
# Potency is read from the fitted curve at half-maximal effect; tags tell the direction and shape of the fitted curve.
# Sequence of UniProt Q9UGL1 (Q9UGL1 whole entry, looked up): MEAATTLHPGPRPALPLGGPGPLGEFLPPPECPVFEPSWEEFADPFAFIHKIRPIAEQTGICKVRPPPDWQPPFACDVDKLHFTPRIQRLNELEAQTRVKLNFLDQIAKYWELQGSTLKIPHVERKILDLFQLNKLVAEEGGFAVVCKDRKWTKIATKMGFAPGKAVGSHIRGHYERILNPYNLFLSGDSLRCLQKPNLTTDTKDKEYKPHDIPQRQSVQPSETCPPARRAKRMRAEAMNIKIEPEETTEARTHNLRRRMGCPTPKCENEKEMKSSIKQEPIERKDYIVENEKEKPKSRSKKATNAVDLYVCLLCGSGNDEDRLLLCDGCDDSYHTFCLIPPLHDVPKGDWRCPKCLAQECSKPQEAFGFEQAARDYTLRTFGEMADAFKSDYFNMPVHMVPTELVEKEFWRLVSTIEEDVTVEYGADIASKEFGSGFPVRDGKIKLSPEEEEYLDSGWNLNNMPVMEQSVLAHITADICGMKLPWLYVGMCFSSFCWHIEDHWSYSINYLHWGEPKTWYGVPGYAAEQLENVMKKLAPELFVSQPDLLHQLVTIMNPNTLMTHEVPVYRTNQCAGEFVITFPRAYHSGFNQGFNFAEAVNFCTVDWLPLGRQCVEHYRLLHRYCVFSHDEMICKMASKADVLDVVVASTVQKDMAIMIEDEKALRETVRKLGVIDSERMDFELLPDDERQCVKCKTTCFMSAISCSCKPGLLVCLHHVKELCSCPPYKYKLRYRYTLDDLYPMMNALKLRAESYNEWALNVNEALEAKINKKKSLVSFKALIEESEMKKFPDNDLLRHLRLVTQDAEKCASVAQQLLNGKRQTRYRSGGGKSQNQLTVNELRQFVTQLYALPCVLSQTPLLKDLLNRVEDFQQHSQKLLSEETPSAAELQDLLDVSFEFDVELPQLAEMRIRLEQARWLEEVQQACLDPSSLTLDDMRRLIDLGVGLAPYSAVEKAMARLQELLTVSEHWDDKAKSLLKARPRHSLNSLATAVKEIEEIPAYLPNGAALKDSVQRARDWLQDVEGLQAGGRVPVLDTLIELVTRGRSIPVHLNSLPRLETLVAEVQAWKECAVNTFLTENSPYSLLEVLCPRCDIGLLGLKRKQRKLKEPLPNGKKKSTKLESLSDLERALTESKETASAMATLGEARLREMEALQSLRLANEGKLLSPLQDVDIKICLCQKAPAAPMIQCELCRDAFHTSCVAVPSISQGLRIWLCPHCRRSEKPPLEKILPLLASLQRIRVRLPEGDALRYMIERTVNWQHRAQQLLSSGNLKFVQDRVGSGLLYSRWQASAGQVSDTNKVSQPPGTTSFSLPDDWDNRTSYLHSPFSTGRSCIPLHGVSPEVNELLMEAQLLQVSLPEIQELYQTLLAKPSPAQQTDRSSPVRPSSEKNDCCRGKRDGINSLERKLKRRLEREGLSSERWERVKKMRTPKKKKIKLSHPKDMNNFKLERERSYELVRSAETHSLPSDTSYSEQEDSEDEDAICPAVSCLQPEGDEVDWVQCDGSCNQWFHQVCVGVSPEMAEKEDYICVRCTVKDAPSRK
SMILES,Potency,"activity change, negative = inhibition"
Cc1ccccc1OCc1nc(C#N)c(N2CCOCC2)o1,"inconclusive: 39.8 µM [inhibitor, single point]",–
CN1N=C2c3ccccc3CCC2C1c1ccc(F)cc1 (stereo not given),"inconclusive: 31.6 µM [inhibitor, single point]",–
COc1ccc2[nH]c3c(c2c1)CCN(C)C31CCN(C(=O)C2CCCC2)CC1,"inconclusive: 25.1 µM [inhibitor, single point]",–
CCc1ccc(OCCCSc2nc(-c3ccc(C(C)(C)C)cc3)nc3cc(=O)[nH]n23)cc1,"inconclusive: 5.01 µM [inhibitor, partial curve, poor fit]",–
Cc1nc(NC(=O)COc2ccc(Br)cc2)sc1C,–,inactive: -0.13%
CCCCNC(=O)c1ccc(C#N)cc1,–,inactive: 2.36%
NC(=O)Cn1ccc2cc(OCC3CCN(C(=O)CCc4ccccc4)CC3)cnc21,active: 31.6 µM,–
COc1cccc(C(=O)Nc2ccc(Cl)c(-c3nc4ccccc4[nH]3)c2)c1,"inconclusive: 44.7 µM [inhibitor, single point]",–
CCOC(=O)c1cccc(NC(=O)c2ccc3c(c2)nnn3C2CCCC2)c1,"inconclusive: 35.5 µM [inhibitor, single point]",–
O=C(CN1CCN(C2CCCC2)CC(O)C1)NCCc1ccccc1 (stereo not given),"inconclusive: 3.98 µM [inhibitor, full curve]",–
C=CCC1(Nc2c(C)cccc2CC)CCCCC1,–,inactive: 26.6%
Cc1ccc(Cn2c(C(=O)Nc3cccc(Cl)c3)cc3sccc32)cc1,"inconclusive: 31.6 µM [inhibitor, partial curve, poor fit]",–
COc1cccc(NC(=O)c2cc3c(N4CCSCC4)nc(C)cn3n2)c1,active: 28.2 µM,–
CCOC(=O)c1c(NC(=O)COc2ccc(OC)cc2)sc(C)c1Cc1ccc2c(c1)OCO2,–,inactive: 12.6%
C=CCNC(=O)NC(=O)CN(CC(=O)Nc1c(C)cccc1C)CC(=O)Nc1c(C)cccc1C,–,inactive: -1.81%
CSc1ncc(Cl)c(C(=O)Nc2ccc(S(=O)(=O)N3CCC(C)CC3)cc2)n1,"inconclusive: 17.8 µM [inhibitor, single point]",–
CCCc1cc(CNC(=O)c2ccc(NC3CCOC(C)(C)C3)nc2)on1 (stereo not given),"inconclusive: 22.4 µM [inhibitor, partial curve, poor fit]",–
COc1ccc(S(=O)(=O)Nc2ccc3n(c2=O)C[C@H]2C[C@@H]3CN(C(=O)Nc3cc(OC)cc(OC)c3)C2)cc1,"inconclusive: 25.1 µM [inhibitor, single point]",–
O=C(NCCSc1ccccc1)c1cc(Cl)c2c(c1)OCCCO2,–,inactive: 27.8%
O=C(Nc1cccc(CNCc2ccccn2)c1)c1cccc(F)c1,–,inactive: 5.52%
